According to article PMC4336329 (PLoS ONE, 2015):
Out of some 310,000 compounds screened, about 2,200 (0.71%) showed an effect of 50% or more. Effects have a minus sign here. The list shows a part of the results.

Target: human ether-à-go-go-related gene (hERG) potassium channel (human, UniProt Q12809)
Assay: primary screen, population patch clamp on CHO cells stably expressing hERG

Chain of human ether-à-go-go-related gene (hERG) potassium channel (Q12809 whole entry, looked up): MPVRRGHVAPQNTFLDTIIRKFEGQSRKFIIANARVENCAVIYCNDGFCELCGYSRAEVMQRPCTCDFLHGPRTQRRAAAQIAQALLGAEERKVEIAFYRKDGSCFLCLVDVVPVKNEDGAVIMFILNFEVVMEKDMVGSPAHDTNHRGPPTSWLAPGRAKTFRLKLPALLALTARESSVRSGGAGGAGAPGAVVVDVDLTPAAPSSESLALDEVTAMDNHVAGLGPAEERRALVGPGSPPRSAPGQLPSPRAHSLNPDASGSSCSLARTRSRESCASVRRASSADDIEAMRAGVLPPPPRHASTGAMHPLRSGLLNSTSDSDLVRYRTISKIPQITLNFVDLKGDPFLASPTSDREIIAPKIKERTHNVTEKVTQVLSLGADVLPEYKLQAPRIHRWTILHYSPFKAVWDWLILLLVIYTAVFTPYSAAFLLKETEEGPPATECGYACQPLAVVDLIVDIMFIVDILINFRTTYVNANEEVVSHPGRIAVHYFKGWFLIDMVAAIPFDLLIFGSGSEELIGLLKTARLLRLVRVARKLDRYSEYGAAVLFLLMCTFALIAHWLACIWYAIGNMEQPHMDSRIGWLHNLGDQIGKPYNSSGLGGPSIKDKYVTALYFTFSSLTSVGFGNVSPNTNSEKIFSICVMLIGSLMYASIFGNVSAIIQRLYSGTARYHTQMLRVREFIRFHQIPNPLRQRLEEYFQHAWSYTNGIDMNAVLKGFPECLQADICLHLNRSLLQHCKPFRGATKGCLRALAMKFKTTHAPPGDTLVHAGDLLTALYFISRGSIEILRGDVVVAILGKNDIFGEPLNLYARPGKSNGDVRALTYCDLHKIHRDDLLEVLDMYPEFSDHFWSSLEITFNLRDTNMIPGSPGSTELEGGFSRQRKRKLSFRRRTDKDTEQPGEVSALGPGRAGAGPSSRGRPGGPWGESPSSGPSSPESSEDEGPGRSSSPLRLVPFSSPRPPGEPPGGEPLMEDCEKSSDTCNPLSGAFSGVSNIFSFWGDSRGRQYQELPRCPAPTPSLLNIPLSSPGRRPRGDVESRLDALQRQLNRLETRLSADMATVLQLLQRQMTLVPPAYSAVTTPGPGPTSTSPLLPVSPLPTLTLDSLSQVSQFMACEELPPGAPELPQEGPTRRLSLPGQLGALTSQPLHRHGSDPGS

| Structure (SMILES) | hERG current change (%, negative = inhibition) at 1uM [%] |
| --- | --- |
| CCCc1cc(=O)[nH]c(SCCOC(=O)c2ccccc2)n1 | -2.71 |
| Cc1nonc1NC(=O)CSc1nc2ccccc2o1 | 6.1 |
| O=C(COc1cccnc1[N+](=O)[O-])Nc1cc(S(=O)(=O)N2CCCCC2)ccc1Cl | 10.1 |
| CC(C)(C)OC(=O)N1CCC(CC2CC(c3ccc(Cl)cc3)=NO2)(C(=O)NCC2CCCCC2)CC1 (centres unmarked) | -0.26 |
| CCCCn1c(N)c(N(CCC(C)C)C(=O)c2ccc(N3CCCC3=O)cc2)c(=O)[nH]c1=O | 12.4 |
| COc1ccc(Br)cc1C1CC(=O)N2CN(C)CSC2=C1C#N (centres unmarked) | 15.7 |
| COc1ccc(C(=O)N2CCN(c3nc4ccccc4o3)CC2)cc1OC | -6.13 |
| COC(=O)c1scc(C)c1NC(=O)CC1NCCNC1=O (centres unmarked) | 11.9 |
| CCCN(CCC)C(=O)c1cc(-c2ccc3c(c2)OCO3)nc2ccccc12 | -2.07 |
| Cc1cccc(C(=O)N(Cc2ccco2)c2c(N)n(Cc3ccccc3)c(=O)[nH]c2=O)c1 | 2.39 |
| O=C(c1cc2ccccc2cc1O)N1CCN(c2ccccn2)CC1 | 3.7 |
| Cc1cc(OCC(=O)NNC(=O)c2ccncc2)ccc1C(C)C | 1.1 |
| NC(=O)c1ccccc1NC(=O)Cc1cccs1 | 14.8 |
| Cc1cc(NC(=O)c2ccc(C)s2)n(-c2nc3ccccc3[nH]2)n1 | 6.82 |
| Cc1c(NC(=O)C2CC(c3c(F)cccc3Cl)=NO2)c(=O)n(-c2ccccc2)n1C (centres unmarked) | 20.4 |
| O=C1CCCC(=O)C1Sc1ccc(Cl)cc1 | 15.6 |
| O=C(Nc1nc(-c2ccccn2)cs1)C1COc2ccccc2O1 (centres unmarked) | 9.5 |
| CC[C@H](C)Cc1cn([C@@H](CCCN=C(NC(=O)OC(C)(C)C)NC(=O)OC(C)(C)C)C(=O)NCCCCCCCCCCC(=O)N2CCN(C(=O)OC(C)(C)C)CC2)nn1 | 7.66 |
| Cc1cc(C)n(-c2c(C)[nH]c3ccccc23)n1 | 11.1 |
| COC(=O)CCC(=O)OC1(C)C(=O)C2=CN(CCc3c[nH]c4ccccc34)C(c3ccc(OC)cc3)=CC2=C(Br)C1=O (centres unmarked) | 8.64 |
| COc1ccc(N(C(=O)CNC(=O)c2ccco2)C(C(=O)NC2CCCC2)c2ccco2)cc1 (centres unmarked) | 12.3 |
| Cc1nonc1NC(=O)c1ccccc1Br | 11.3 |
| NC(=O)C1CCN(c2ccnc3cc(Cl)ccc23)CC1 | -4.7 |
